In all, about 270,000 compounds went through this assay and about 5,800 (2.1%) were called active. The shares of active, inactive and inconclusive entries below differ from those in the screen. The call rests on the fitted dose curve; in most records, active means well fitted inhibition curve with a large enough effect; inconclusive means small, poorly fitted or top-dose-only effect; inactive means flat fitted curve, though single readings scatter. A potency beside an inconclusive call is a rough fit, not a confirmed value.
target: Microtubule-associated protein tau (Homo sapiens) (UniProt P10636); experiment: qHTS for Inhibitors of Tau Fibril Formation, Thioflavin T Binding; settings: recombinant tau K18 P301L (four-repeat tau fragment), heparin-induced fibrillization, ThT fluorescence; series mostly up to 57.4 µM; further: nearly all actives have a fitted effect of over 55% in size
Outline: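 Recombinant human tau K18 fragment […] carrying P301L, 15 uM unlabeled plus 0.24 uM Alexa 594-labeled, was fibrillized with 20 uM heparin in 100 mM sodium acetate pH 7 for 6 hr at 37 C; 30 uM ThT fluorescence read after 1 hr.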
Potency means the concentration at half of the fitted maximal effect; tags describe the fitted curve by direction and shape.

UniProt P10636, sequence (P10636 whole entry, looked up, the tested form may be a part): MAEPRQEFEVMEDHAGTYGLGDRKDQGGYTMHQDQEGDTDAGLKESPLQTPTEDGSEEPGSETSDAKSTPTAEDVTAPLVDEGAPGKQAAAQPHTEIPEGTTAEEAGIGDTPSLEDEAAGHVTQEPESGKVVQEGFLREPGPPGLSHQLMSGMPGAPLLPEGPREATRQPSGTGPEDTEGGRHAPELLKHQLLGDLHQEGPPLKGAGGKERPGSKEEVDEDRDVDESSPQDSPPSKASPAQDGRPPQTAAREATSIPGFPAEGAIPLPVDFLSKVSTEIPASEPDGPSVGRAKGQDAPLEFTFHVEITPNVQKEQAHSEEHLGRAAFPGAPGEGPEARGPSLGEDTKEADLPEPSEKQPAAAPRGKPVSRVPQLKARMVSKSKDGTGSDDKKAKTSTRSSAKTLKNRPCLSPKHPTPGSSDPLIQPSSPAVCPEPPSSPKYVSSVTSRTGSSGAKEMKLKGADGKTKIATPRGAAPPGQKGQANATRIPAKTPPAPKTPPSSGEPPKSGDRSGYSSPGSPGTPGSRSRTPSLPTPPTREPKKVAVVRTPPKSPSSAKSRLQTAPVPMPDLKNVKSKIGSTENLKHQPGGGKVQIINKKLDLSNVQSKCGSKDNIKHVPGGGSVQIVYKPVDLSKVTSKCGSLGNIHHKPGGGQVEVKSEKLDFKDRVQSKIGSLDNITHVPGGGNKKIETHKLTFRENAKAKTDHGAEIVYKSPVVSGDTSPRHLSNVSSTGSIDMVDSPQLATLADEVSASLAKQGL

Compound	Potency
CC(=O)N1N=C(c2ccc(Br)cc2)CC1c1cn(C)c2ccccc12 (centres undefined)	inconclusive: 31.6 µM [inhibitor, single point]
O=c1[nH]c(CSc2nnc(Nc3ccccc3)s2)nc2ccccc12	inactive
CCOc1ccc2c(c1)C(c1ccc(C)cc1)=NNC(c1ccc(C)cc1)=N2	inconclusive: 20 µM [inhibitor, partial curve]
CC(=O)NCC(=O)N[C@H](CCC(=O)O)C(=O)O	inactive
O=C1C(Cl)=C(Nc2cccc(O)c2)C(=O)N1Cc1ccccc1	active: 14.1 µM
CCCCSCCCNC(=O)c1cn(CC)c2ccc(S(=O)(=O)N3CCCCCC3)cc2c1=O	inactive
CCN(CC)CCCNC(=O)c1cn(CCOC)c(=O)c2c1c1ccccc1n2C	inactive
CS(=O)(=O)Nc1ccccc1C(=O)Nc1ccccc1Cl	inactive
COc1cc2[nH]c3c(N4CCN(c5ccc(Cl)cc5)CC4)ncnc3c2cc1OC	inconclusive: 0.891 µM [inhibitor, full curve]
Cc1nc(CSc2ccc(Cl)cc2)cc(NCc2ccccc2)n1	inconclusive: 17.8 µM [inhibitor, partial curve]
CCOc1cccc(C(=O)Nc2ccc3oc(-c4cccnc4)nc3c2)c1	inconclusive: 0.112 µM [inhibitor, full curve, poor fit]
COc1ccc(N2CCN(C(=O)CSc3nnc4c5cc(C)ccc5n(C)c4n3)CC2)cc1	inconclusive: 11.2 µM [inhibitor, partial curve]
O=C(NC(=S)Nc1ccc(Oc2ccccc2)cc1)c1ccc(Cl)cc1	inconclusive: 5.01 µM [inhibitor, full curve]
O=[N+]([O-])c1ccc(N2CCOCC2)cc1NCCCO	inconclusive: 8.91 µM [inhibitor, partial curve]
COCCNC(=O)C(=O)NNC(=O)c1ccccc1OC	inactive
COC(=O)C/C=C/[C@@H](C)[C@@H](/C=N/O[C@H](C)c1cn([C@@H]2COC[C@H]2O)nn1)NS(=O)(=O)c1ccc(C)cc1	inactive
Fc1cccc(CN2CCN(c3nc4nonc4nc3NC3CC3)CC2)c1	inactive
Cc1cccc(/C(N)=N/OC(=O)c2ccc(Cl)cc2Cl)c1	inconclusive: 20 µM [inhibitor, partial curve]
COc1cccc(/C=N/Nc2ncccc2[N+](=O)[O-])c1OC	inconclusive: 22.4 µM [inhibitor, partial curve]
O=C(COc1ccc(Cl)cc1)OCc1csc(Nc2ccccc2)n1	inconclusive: 15.8 µM [inhibitor, partial curve]
COc1ccc(/C=C(/C(=O)c2cccs2)N2C=CC=CC2=C(C#N)C#N)cc1	active: 28.2 µM
O=C(COC(=O)C1CC(=O)N(Cc2ccco2)C1)c1ccc(OC(=O)c2ccccc2)cc1 (centres undefined)	inconclusive: 15.8 µM [inhibitor, partial curve]

Compound	Potency
Cc1nc(-c2ccc(O)c(O)c2)cs1	inconclusive: 10 µM [inhibitor, partial curve]
CCN(CC)c1ccc(NC(=O)CCCOc2cccc(C)c2)cc1	inconclusive: 8.91 µM [inhibitor, partial curve]
Clc1ccc(CCNC(c2nnc(-c3ccccc3)o2)c2ccccc2Cl)cc1 (centres undefined)	inactive
CC(C)NC(=O)C1CCN(C(=O)N2CCOc3ccc(Cl)cc32)CC1	inconclusive: 28.2 µM [inhibitor, single point]
O=C(Oc1ccccc1)Oc1ccc2c(c1)oc(=O)c1ccccc12	inconclusive: 14.1 µM [inhibitor, partial curve]
O=C(CC1SC(=Nc2ccc(OC(F)F)cc2)N(CCN2CCOCC2)C1=O)Nc1ccc(F)cc1F (centres undefined)	inactive
CN1C(=O)c2ccccc2Sc2ccc(NC(=O)N3CCN(c4ccccc4F)CC3)cc21	inconclusive: 31.6 µM [inhibitor, single point]
COc1ccc(CC(=O)OCC(=O)Nc2ccc(N3CCOCC3)cc2)cc1	inconclusive: 11.2 µM [inhibitor, partial curve, poor fit]
COc1ccc(NC(=O)c2noc3c2CCC3)cc1	inconclusive: 15.8 µM [inhibitor, partial curve]
Cc1ccc(NC(=O)CSc2nnc(C3COc4ccccc4O3)o2)c(Cl)c1 (centres undefined)	inactive
COc1cccc(OC)c1OCCCCCc1c(C)n[nH]c1C	inconclusive: 25.1 µM [inhibitor, partial curve, poor fit]
CC1(C)C(=O)C=C[C@]2(C)C1CC(=O)[C@]1(C)C2CC[C@@]2(C)C(c3ccoc3)OC(=O)C3O[C@@]321 (some centres undefined)	inconclusive: 31.6 µM [inhibitor, partial curve, poor fit]
CC(=O)Nc1ccc2nc(NC(=O)c3cccnc3)sc2c1	inconclusive: 28.2 µM [inhibitor, partial curve, poor fit]
CCOc1nc(-c2ccc(Cl)cc2Cl)ccc1C#N	inconclusive: 22.4 µM [inhibitor, partial curve, poor fit]
CCOC(=O)CCc1c(C)c2ccc(OCc3ccc([N+](=O)[O-])cc3)cc2oc1=O	inconclusive: 3.98 µM [inhibitor, partial curve]
CCOc1ccc(C(C)=O)cc1COC(=O)C1=COCCO1	inactive
O=C(/C=C/c1ccco1)NC(=S)Nc1nc(-c2ccc(Cl)cc2)cs1	inconclusive: 8.91 µM [inhibitor, partial curve]
Clc1ncnc2scc(C3COc4ccccc4O3)c12 (centres undefined)	inconclusive: 35.5 µM [inhibitor, single point]
O=C1OC(N2CCN(c3ccccn3)CC2)c2ccccc21 (centres undefined)	inconclusive: 2.51 µM [inhibitor, partial curve]
CCOC(=O)Cc1csc(NC(=O)c2sc3nc4cc(C)ccc4cc3c2N)n1	active: 2.51 µM
Cc1cc(C)c2c(-n3cccc3)c(C(=O)NCCCN3CCCCC3C)sc2n1 (centres undefined)	inactive
CCn1c(SCc2ccccc2Cl)nc(=O)c2c(C(=O)OC)cc(C3CC3)nc21	inconclusive: 10 µM [inhibitor, partial curve]

From PubChem BioAssay AID1460 (National Center for Advancing Translational Sciences (NCATS), 2008)
